Our source for the TetR repression strength values is a collection of fitness landscapes (doi:10.1038/s41467-024-54723-y).

Whole data set: some 18,000 sequences, median “TetR repression strength (sort-seq, GFP reporter)” near 0.23, cut for the highest 2% near 0.68. The list shows a part of the results.

This test addresses TetR (class B, Tn10) (UniProt P04483). Nature of the test: TetR repression strength (sort-seq, GFP reporter) (relative to tetO2 = 1); higher = stronger repression. The conditions noted are these: E. coli. The gist of the method: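 Escherichia coli SIG10-MAX cells carried a low-copy plasmid library in which eight operator positions were randomized between a constitutive promoter and sfGFP, and TetR was expressed constitutively. After 5 h of growth at 37 °C in LB with 50 µg/mL chloramphenicol, 10^6 cells were FACS-sorted into 13 fluorescence bins, and each bin was Illumina-sequenced. Repression strength was the top bin index plus one minus the read-weighted mean bin, divided by the value for the unaltered operator. Across three independent transformations, only library members with ≥30 reads in every replicate and a CV ≤0.5 were averaged.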
UniProt P04483, sequence (P04483 whole entry): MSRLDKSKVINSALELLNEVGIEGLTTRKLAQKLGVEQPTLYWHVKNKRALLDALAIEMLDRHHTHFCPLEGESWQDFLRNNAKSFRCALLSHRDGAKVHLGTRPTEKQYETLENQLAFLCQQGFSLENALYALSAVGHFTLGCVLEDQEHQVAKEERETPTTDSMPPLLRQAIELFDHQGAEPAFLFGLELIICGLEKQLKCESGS
In the case of TCCCTGGGAGTAGTTGAGA, the TetR repression strength is 0.0801.
For the sequence TCCCGAGTAGTGACGGAGA, the TetR repression strength is 0.125.
TCCCGCACAGTTGTGGAGA returned a TetR repression strength of 0.219.
The figure for TCCCTATCAGTTATAGAGA is 0.809; for TCCCGCTCAGTAAAGGAGA it is 0.622; for TCCCCCTTAGTACTGGAGA it is 0.285.
The figure for TCCCATGAAGTTGTGGAGA is 0.166; for TCCCAGATAGTCGTTGAGA it is 0.287.
The figure for TCCCATGGAGTACTGGAGA is 0.0311; for TCCCTGCCAGTGAGGGAGA it is 0.234; for TCCCTTCAAGTGAAAGAGA it is 0.22.
With TCCCGAGGAGTGTGGGAGA, the TetR repression strength is 0.212.
Sequence TCCCTCCTAGTGGCGGAGA showed a TetR repression strength of 0.417.
The figure for TCCCATTTAGTCTATGAGA is 0.279; for TCCCTAAGAGTGATCGAGA it is 0.362.
The sequence TCCCTTATAGTCTTAGAGA displayed a TetR repression strength of 0.235.
In the case of TCCCGGGGAGTCAGCGAGA, the TetR repression strength came to 0.375.
The figure for TCCCCGAGAGTTGAAGAGA is 0.192; for TCCCATTGAGTCCTAGAGA it is 0.304.
The result for TCCCTATTAGTGTGTGAGA reads 0.219; that for TCCCAGGGAGTGCGGGAGA, 0.134; that for TCCCAAAGAGTTCTCGAGA, 0.321.
TCCCAGGGAGTTGGCGAGA gave a TetR repression strength of 0.244.
In turn, TCCCACGCAGTGTGTGAGA came in with a TetR repression strength of 0.207.
The result for TCCCATAGAGTTGATGAGA reads 0.145; that for TCCCCCTAAGTGGCGGAGA, 0.247; that for TCCCTGGTAGTCAGGGAGA, 0.171.
The figure for TCCCTTGGAGTCGCGGAGA is 0.305; for TCCCGCGAAGTCATCGAGA it is 0.202.
The figure for TCCCTTCGAGTTCAGGAGA is 0.198; for TCCCCCTGAGTTTCGGAGA it is 0.199; for TCCCCCGAAGTGGGGGAGA it is 0.216.
In the case of TCCCAACGAGTGCAAGAGA, the TetR repression strength was found to be 0.332.
The figure for TCCCTGGAAGTCTTTGAGA is 0.393; for TCCCGCAGAGTGCTCGAGA it is 0.0447; for TCCCTCTAAGTGTCCGAGA it is 0.512.
The figure for TCCCCTGGAGTCGTAGAGA is 0.288; for TCCCAGCGAGTTGGGGAGA it is 0.273.
Regarding TCCCGGCAAGTGCTGGAGA, the TetR repression strength amounted to 0.0912.
The figure for TCCCGCCTAGTGAGGGAGA is 0.193; for TCCCAGCTAGTGCGCGAGA it is 0.414; for TCCCACTCAGTGCGGGAGA it is 0.213.
The figure for TCCCGGCTAGTCAATGAGA is 0.355.
The result for TCCCTATCAGTGCTGGAGA reads 0.86.
Turning to TCCCGCGGAGTTTTAGAGA, the TetR repression strength worked out at 0.203.
The figure for TCCCTTCAAGTTTCAGAGA is 0.837.
The result for TCCCGTTTAGTAACGGAGA reads 0.149.
The result for TCCCCGAGAGTATTAGAGA reads 0.176; that for TCCCCGTCAGTAACTGAGA, 0.281; that for TCCCGGTGAGTGGTCGAGA, 0.181.
As for TCCCAGGAAGTGCACGAGA, the TetR repression strength worked out at 0.275.
The figure for TCCCTGGCAGTTGCGGAGA is 0.282; for TCCCTGGGAGTTTACGAGA it is 0.173; for TCCCCACAAGTCACTGAGA it is 0.311.
The result for TCCCTCTAAGTCGTCGAGA reads 0.207.
In turn, TCCCAGAGAGTCCCCGAGA had a TetR repression strength of 0.
The result for TCCCCAATAGTCCTAGAGA reads 0.285; that for TCCCGTGAAGTCGATGAGA, 0.187; that for TCCCAGACAGTTCAAGAGA, 0.365.
The figure for TCCCGTCGAGTGTCAGAGA is 0.263; for TCCCCTGCAGTGCAAGAGA it is 0.618; for TCCCTCGAAGTGGAGGAGA it is 0.0933.
The result for TCCCGACCAGTCATTGAGA reads 0.292; that for TCCCGCGCAGTAACGGAGA, 0.242.
In turn, TCCCCTTGAGTCCTGGAGA showed a TetR repression strength of 0.463.
TCCCTTCCAGTTTACGAGA showed a TetR repression strength of 0.41.
The figure for TCCCCGCAAGTTATCGAGA is 0.36.
The result for TCCCTTCGAGTGGCAGAGA reads 0.0926; that for TCCCTCAGAGTTGCTGAGA, 0.245; that for TCCCGAACAGTCCTCGAGA, 0.197.
The result for TCCCGAGCAGTATTTGAGA reads 0.374; that for TCCCTTACAGTGTGTGAGA, 0.306; that for TCCCGAGAAGTGCAGGAGA, 0.173.
As to TCCCACTAAGTGCCGGAGA, the TetR repression strength was found to be 0.187.
The figure for TCCCGAGAAGTCCATGAGA is 0.207; for TCCCGCCAAGTGCGGGAGA it is 0.218.
Take TCCCGGGAAGTAAGCGAGA: the TetR repression strength stood at 0.556.
The figure for TCCCCGGAAGTTCTAGAGA is 0.315.
The result for TCCCTTGCAGTGCCAGAGA reads 0.677.
The figure for TCCCAATGAGTCGGCGAGA is 0.222; for TCCCTCCCAGTGCGTGAGA it is 0.168.
The sequence TCCCGGTAAGTGTGCGAGA showed a TetR repression strength of 0.136.
For TCCCCGTAAGTCCGTGAGA, the TetR repression strength is 0.522.
The result for TCCCTGAGAGTATGTGAGA reads 0.282.
The figure for TCCCGTCAAGTCAATGAGA is 0.382; for TCCCCGGTAGTCGCTGAGA it is 0.136.
The result for TCCCTAGTAGTGGTTGAGA reads 0.285; that for TCCCAGTGAGTGTCCGAGA, 0.257; that for TCCCTGTTAGTCGGAGAGA, 0.109.
With TCCCATTTAGTCCAAGAGA, the TetR repression strength was found to be 0.28.
The result for TCCCGTTAAGTTGGGGAGA reads 0.173; that for TCCCCGTCAGTAGGGGAGA, 0.146.
The result for TCCCCTGTAGTATGAGAGA reads 0.383.
The result for TCCCTGCAAGTTTGAGAGA reads 0.161.
In the case of TCCCTGGTAGTGACCGAGA, the TetR repression strength came out at 0.116.
The result for TCCCCTTGAGTTACCGAGA reads 0.307.
The sequence TCCCAATTAGTGCGAGAGA displayed a TetR repression strength of 0.333.
The figure for TCCCTACGAGTGAGTGAGA is 0.203.
As for TCCCAGACAGTGGGGGAGA, the TetR repression strength was 0.185.
The result for TCCCACGTAGTGATTGAGA reads 0.174; that for TCCCCTGCAGTTGAGGAGA, 0.248.
The figure for TCCCGTGTAGTTGCAGAGA is 0.976.
